The experiment concerns Trichoderma virens ATCC 9645. Briefly: growth yield (OD600) with compound + IPBC relative to untreated control; higher = less growth inhibition. Particulars: compound concentration: 100 uM, IPBC concentration: 200 ng/ml. Put shortly: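 Growth appears as means of duplicate screens, relative to the control containing neither agent. To obtain it, OD600 was read on a BioTek EL800 at 40 h and 72 h. The cultures were 100 μl aliquots in 96-well plates at 30 °C, holding Trichoderma virens ATCC 9645 spores at 15,000 spores ml^−1 in potato dextrose broth, library compounds at 100 μM final, and, in some wells, a biocide at 200 ng ml^−1.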

Structures can show the parent of a compound that is named as a salt. ± gives the standard error. Out of some 1,300 compounds screened, about 130 (10%) showed an effect of 50% or more. Only a part is listed here, and it is no random draw.

Regarding `Cc1ccc(C(=O)c2cc(O)c(O)c([N+](=O)[O-])c2)cc1` [Tolcapone] + CCCCNC(=O)OCC#CI [3-iodo-2-propynyl butylcarbamate (IPBC)], the growth yield reads like this: (40 h) 47.5 ± 3.3%; (72 h) 56 ± 2.7%.
In the same order, the values of `COc1ccc(C(=O)NCc2cccnc2)cc1C(=O)NCc1cccnc1` [Picotamide monohydrate] + CCCCNC(=O)OCC#CI [3-iodo-2-propynyl butylcarbamate (IPBC)] are 91.2 ± 5.1% and 97 ± 3.9%.
For `O=C(NCCNCC(O)COc1ccc(O)cc1)N1CCOCC1` (stereo not drawn) [Xamoterol hemifumarate] + CCCCNC(=O)OCC#CI [3-iodo-2-propynyl butylcarbamate (IPBC)], the growth yield (40 h) was determined as 92.4 ± 1.6% and the growth yield (72 h) was 94.39 ± 0.63%.
As to `COc1ccc(CCN2CCC(Nc3nc4ccccc4n3Cc3ccc(F)cc3)CC2)cc1` [Astemizole] + CCCCNC(=O)OCC#CI [3-iodo-2-propynyl butylcarbamate (IPBC)], the growth yield runs as follows: (40 h) 5.08%; (72 h) 4.3 ± 0.32%.
Turning to `CCN(Cc1ccncc1)C(=O)C(CO)c1ccccc1` (stereo not drawn) [Tropicamide] + CCCCNC(=O)OCC#CI [3-iodo-2-propynyl butylcarbamate (IPBC)], the growth yield was found to be 84.8 ± 0.95% (40 h) and 93.97 ± 0.84% (72 h).
For the molecule `CN(C)CCOC1=Cc2ccccc2Sc2ccc(Cl)cc21` [Zotepine] + CCCCNC(=O)OCC#CI [3-iodo-2-propynyl butylcarbamate (IPBC)], the growth yield runs as follows: (40 h) 38.6 ± 0.16%; (72 h) 97.7%.
For `CCN(CC)CC#CCOC(=O)C(O)(c1ccccc1)C1CCCCC1` (stereo not drawn) [Oxybutynin chloride] + CCCCNC(=O)OCC#CI [3-iodo-2-propynyl butylcarbamate (IPBC)], the growth yield stood at 74.18 ± 0.16% (40 h) and 88.52 ± 0.63% (72 h).
For `Cc1ncc([N+](=O)[O-])n1CCO` [Metronidazole] + CCCCNC(=O)OCC#CI [3-iodo-2-propynyl butylcarbamate (IPBC)], the growth yield (40 h) turned out to be 112 ± 4.5% and the growth yield (72 h) was 109 ± 4.9%.
The corresponding values for `OC(CCN1CCCCC1)(c1ccccc1)C1CC2C=CC1C2` (stereo not drawn) [Biperiden hydrochloride] + CCCCNC(=O)OCC#CI [3-iodo-2-propynyl butylcarbamate (IPBC)] are 89.9 ± 7.3% and 95 ± 4%.
As to `CN1C2CCCC1CC(NC(=O)c1nn(C)c3ccccc13)C2` (stereo not drawn) [Granisetron] + CCCCNC(=O)OCC#CI [3-iodo-2-propynyl butylcarbamate (IPBC)], the growth yield (40 h) came out at 80.1 ± 4.1% and the growth yield (72 h) stood at 86.2 ± 2.3%.
Regarding `CC(=O)O[C@H]1C[C@H](O[C@H]2[C@@H](O)C[C@H](O[C@H]3[C@@H](O)C[C@H](O[C@H]4CC[C@@]5(C)[C@H](CC[C@@H]6[C@@H]5C[C@@H](O)[C@]5(C)[C@@H](C7=CC(=O)OC7)CC[C@]65O)C4)O[C@@H]3C)O[C@@H]2C)O[C@H](C)[C@H]1O[C@@H]1O[C@H](CO)[C@@H](O)[C@H](O)[C@H]1O` [Lanatoside C] + CCCCNC(=O)OCC#CI [3-iodo-2-propynyl butylcarbamate (IPBC)], the growth yield was determined as 91 ± 2.1% (40 h) and 91.35 ± 0.32% (72 h).
Take `CC(C)N1CCN(c2ccc(OCC3COC(Cn4cncn4)(c4ccc(Cl)cc4Cl)O3)cc2)CC1` (stereo not drawn) [Terconazole] + CCCCNC(=O)OCC#CI [3-iodo-2-propynyl butylcarbamate (IPBC)]: the growth yield amounted to 69.9 ± 2.5% (40 h) and 87 ± 1.3% (72 h).
Regarding `C[N+]1([O-])[C@@H]2C[C@@H](OC(=O)[C@H](CO)c3ccccc3)C[C@H]1[C@@H]1O[C@@H]12` (stereo partly drawn) [Scopolamin-N-oxide hydrobromide] + CCCCNC(=O)OCC#CI [3-iodo-2-propynyl butylcarbamate (IPBC)], the growth yield was 103 ± 2.2% (40 h) and 102 ± 1.1% (72 h).
Turning to `CCN1CCN(C(=O)N[C@@H](C(=O)N[C@@H]2C(=O)N3[C@@H]2SC(C)(C)[C@@H]3C(=O)O)c2ccccc2)C(=O)C1=O` [Piperacillin sodium salt] + CCCCNC(=O)OCC#CI [3-iodo-2-propynyl butylcarbamate (IPBC)], the growth yield is 113 ± 8.6% (40 h) and 105 ± 6.5% (72 h).
On to `CN(C)CCC[C@@]1(c2ccc(F)cc2)OCc2cc(C#N)ccc21` [Escitalopram oxalate] + CCCCNC(=O)OCC#CI [3-iodo-2-propynyl butylcarbamate (IPBC)], for which the growth yield was found to be 76.08 ± 0.48% (40 h) and 86.6 ± 1.3% (72 h).
On to `CCCC(=O)Nc1ncnc2c1ncn2[C@@H]1O[C@@H]2COP(=O)(O)O[C@H]2[C@H]1OC(=O)CCC` [Bucladesine sodium salt] + CCCCNC(=O)OCC#CI [3-iodo-2-propynyl butylcarbamate (IPBC)], for which the growth yield is, setting by setting: (40 h) 102 ± 14%; (72 h) 102 ± 7%.
As to `CN1CCCC(n2nc(Cc3ccc(Cl)cc3)c3ccccc3c2=O)CC1` (stereo not drawn) [Azelastine hydrochloride] + CCCCNC(=O)OCC#CI [3-iodo-2-propynyl butylcarbamate (IPBC)], the growth yield runs as follows: (40 h) 65.6 ± 4.3%; (72 h) 92.6 ± 2.8%.
As for `CN1CCCCC1CCN1c2ccccc2Sc2ccc([S+](C)[O-])cc21` (stereo not drawn) [Mesoridazine besylate] + CCCCNC(=O)OCC#CI [3-iodo-2-propynyl butylcarbamate (IPBC)], the growth yield (40 h) came out at 72.6 ± 2.4% and the growth yield (72 h) was 89.25 ± 0.52%.
Turning to `NC(=O)N/N=C/c1ccc([N+](=O)[O-])o1` [Nitrofural] + CCCCNC(=O)OCC#CI [3-iodo-2-propynyl butylcarbamate (IPBC)], the growth yield is 89.6 ± 10% (40 h) and 92.5 ± 5.7% (72 h).
The corresponding values for `CC(=O)Oc1cccc2c1C(=O)c1c(OC(C)=O)cc(C(=O)O)cc1C2=O` [Diacerein] + CCCCNC(=O)OCC#CI [3-iodo-2-propynyl butylcarbamate (IPBC)] are 72.59 ± 0.48% and 75.4 ± 1.6%.
On to `C=C1C[C@H]2[C@@H]3C=C(C)C4=CC(=O)CC[C@]4(C)[C@H]3CC[C@]2(C)[C@@]1(OC(C)=O)C(C)=O` [Melengestrol acetate] + CCCCNC(=O)OCC#CI [3-iodo-2-propynyl butylcarbamate (IPBC)], for which the growth yield reads like this: (40 h) 100 ± 2.1%; (72 h) 102 ± 2.8%.
As to `Nc1ccc(S(=O)(=O)c2ccc(N)cc2)cc1` [Dapsone] + CCCCNC(=O)OCC#CI [3-iodo-2-propynyl butylcarbamate (IPBC)], the growth yield runs as follows: (40 h) 97.8 ± 2.9%; (72 h) 101 ± 3.6%.
For `CN(C)CCc1c[nH]c2ccc(Cn3cncn3)cc12` [Rizatriptan benzoate] + CCCCNC(=O)OCC#CI [3-iodo-2-propynyl butylcarbamate (IPBC)], the growth yield came out at 87.2 ± 0.79% (40 h) and 91.9% (72 h).
On to `OCCN1CCN(CCCN2c3ccccc3Sc3ccc(Cl)cc32)CC1` [Perphenazine] + CCCCNC(=O)OCC#CI [3-iodo-2-propynyl butylcarbamate (IPBC)], for which the growth yield was determined as 4.29 ± 0.48% (40 h) and 2.94 ± 0.42% (72 h).
As for `Oc1cc(Cl)ccc1Oc1ccc(Cl)cc1Cl` [Triclosan] + CCCCNC(=O)OCC#CI [3-iodo-2-propynyl butylcarbamate (IPBC)], the growth yield is 3.02 ± 0.16% (40 h) and 2.2 ± 0.1% (72 h).
As for `CC1(C)OC(=O)NC1=O` [Dimethadione] + CCCCNC(=O)OCC#CI [3-iodo-2-propynyl butylcarbamate (IPBC)], the growth yield reads like this: (40 h) 98.3 ± 11%; (72 h) 98.2 ± 8%.
`N=C(N)NCC1COC2(CCCCC2)O1` (stereo not drawn) [Guanadrel sulfate] + CCCCNC(=O)OCC#CI [3-iodo-2-propynyl butylcarbamate (IPBC)]: the growth yield by setting is: (40 h) 107 ± 4.1%; (72 h) 104 ± 5%.
`CCC[C@H](N[C@@H](C)C(=O)N1[C@H](C(=O)O)C[C@@H]2CCCC[C@@H]21)C(=O)OCC` [Perindopril] + CCCCNC(=O)OCC#CI [3-iodo-2-propynyl butylcarbamate (IPBC)]: the growth yield is, setting by setting: (40 h) 98.8 ± 5.1%; (72 h) 97.5 ± 3.1%.
On to `Nc1ccc(C(=O)NCC(=O)O)cc1` [Aminohippuric acid] + CCCCNC(=O)OCC#CI [3-iodo-2-propynyl butylcarbamate (IPBC)], for which the growth yield reads like this: (40 h) 85.3 ± 2.1%; (72 h) 93.5 ± 1.3%.
In the same order, the values of `COc1ccc(NS(=O)(=O)c2ccc(N)cc2)nn1` [Sulfamethoxypyridazine] + CCCCNC(=O)OCC#CI [3-iodo-2-propynyl butylcarbamate (IPBC)] are 89.1 ± 9.1% and 96 ± 4.1%.
Regarding `Cc1c(N(C)CS(=O)(=O)O)c(=O)n(-c2ccccc2)n1C` [Dipyrone] + CCCCNC(=O)OCC#CI [3-iodo-2-propynyl butylcarbamate (IPBC)], the growth yield by setting is: (40 h) 92.4 ± 6.7%; (72 h) 87.9 ± 5.2%.
For `CC(NCCC(c1ccccc1)c1ccccc1)c1ccccc1` (stereo not drawn) [Fendiline hydrochloride] + CCCCNC(=O)OCC#CI [3-iodo-2-propynyl butylcarbamate (IPBC)], the growth yield turned out to be 70.37 ± 0.16% (40 h) and 93.7 ± 1.4% (72 h).
In the case of `O=c1[nH]c(=O)n(C2CCCO2)cc1F` (stereo not drawn) [Tegafur] + CCCCNC(=O)OCC#CI [3-iodo-2-propynyl butylcarbamate (IPBC)], the growth yield turned out to be 84.98 ± 0.79% (40 h) and 85.3 ± 1.8% (72 h).
Take `CCN(CC)CCc1nc(-c2ccccc2)no1` [Oxalamine citrate salt] + CCCCNC(=O)OCC#CI [3-iodo-2-propynyl butylcarbamate (IPBC)]: the growth yield runs as follows: (40 h) 96.6 ± 11%; (72 h) 96.7 ± 7.1%.
In the case of `CC(C)NC[C@@H](O)COc1cccc2ccccc12` [(R)-Propranolol hydrochloride] + CCCCNC(=O)OCC#CI [3-iodo-2-propynyl butylcarbamate (IPBC)], the growth yield is, setting by setting: (40 h) 76.9 ± 2.9%; (72 h) 86.3 ± 1.4%.
For the molecule `C[C@]12CC[C@@H]3c4ccc(OC(=O)N(CCCl)CCCl)cc4CC[C@H]3[C@@H]1CC[C@@H]2O` [Estramustine] + CCCCNC(=O)OCC#CI [3-iodo-2-propynyl butylcarbamate (IPBC)], the growth yield turned out to be 97.8 ± 4.5% (40 h) and 98.1 ± 4.7% (72 h).
In the same order, the values of `O=c1oc2ccccc2c(O)c1Cc1c(O)c2ccccc2oc1=O` [Dicumarol] + CCCCNC(=O)OCC#CI [3-iodo-2-propynyl butylcarbamate (IPBC)] are 92.3 ± 6.5% and 93.2 ± 3%.
In the same order, the values of `CN1CCN(CCCN2c3ccccc3Sc3ccc(Cl)cc32)CC1` [Prochlorperazine dimaleate] + CCCCNC(=O)OCC#CI [3-iodo-2-propynyl butylcarbamate (IPBC)] are 3.18% and 2.73 ± 0.21%.
In the case of `Cc1nc(=O)c2cc(CN(C)c3ccc(C(=O)N[C@@H](CCC(=O)O)C(=O)O)s3)ccc2[nH]1` [Raltitrexed] + CCCCNC(=O)OCC#CI [3-iodo-2-propynyl butylcarbamate (IPBC)], the growth yield amounted to 91 ± 8.1% (40 h) and 92.6 ± 4.7% (72 h).

The values above are taken from the supplement of paper PMC8007513.
